In this experiment the target is T1, His-tag column purified baculovirus AR (UniProt P10275 1-920, limits assumed).
T1 construct: About 2 ug used in the GST-Rb pull-down; detected with anti-AR polyclonal antibody NH27; not shown: His tag
T1 sequence (looked up): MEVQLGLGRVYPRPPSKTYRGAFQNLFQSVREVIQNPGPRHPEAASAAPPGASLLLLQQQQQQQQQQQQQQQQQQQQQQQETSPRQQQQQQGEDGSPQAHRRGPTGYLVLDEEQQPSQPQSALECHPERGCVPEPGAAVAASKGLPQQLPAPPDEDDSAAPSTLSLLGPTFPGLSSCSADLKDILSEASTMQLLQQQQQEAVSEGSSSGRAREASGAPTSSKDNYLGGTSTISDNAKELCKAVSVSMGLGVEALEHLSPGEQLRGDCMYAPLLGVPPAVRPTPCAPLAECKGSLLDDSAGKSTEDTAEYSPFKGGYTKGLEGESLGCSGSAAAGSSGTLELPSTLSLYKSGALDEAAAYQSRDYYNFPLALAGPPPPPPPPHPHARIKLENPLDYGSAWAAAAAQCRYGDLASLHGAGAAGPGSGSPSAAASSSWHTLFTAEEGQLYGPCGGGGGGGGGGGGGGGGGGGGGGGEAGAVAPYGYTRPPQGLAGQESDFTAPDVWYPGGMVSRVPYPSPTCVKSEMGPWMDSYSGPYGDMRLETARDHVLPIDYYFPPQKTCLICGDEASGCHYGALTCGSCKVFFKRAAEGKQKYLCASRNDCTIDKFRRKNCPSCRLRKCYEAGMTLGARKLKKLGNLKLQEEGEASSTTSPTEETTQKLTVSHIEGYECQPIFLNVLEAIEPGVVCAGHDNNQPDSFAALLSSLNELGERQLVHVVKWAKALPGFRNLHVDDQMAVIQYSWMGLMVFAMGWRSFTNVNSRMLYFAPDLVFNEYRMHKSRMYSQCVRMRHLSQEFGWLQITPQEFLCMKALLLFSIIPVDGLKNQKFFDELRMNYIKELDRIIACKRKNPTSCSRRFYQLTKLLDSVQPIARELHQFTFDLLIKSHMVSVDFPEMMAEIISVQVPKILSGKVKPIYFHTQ
Put plainly: GST pull-down on glutathione-Sepharose beads, Western blot with anti-AR NH27.

B1: GST alone (other)
chain: not shown
notes: Control of the pull-down; also called glutathione-S-transferase
For B1, the binding result was “no binding”.

For the origin of these results see US20030198990A1 (UNIVERSITY OF ROCHESTER, published 2003).
